Values marked as one replicate rest on one cluster of the flow cell; about a third of the high ones do not repeat.
test system: ATP; assay: switch fluorescence ratio, 500 uM ATP over buffer (Cy3 cluster intensity, sum of 5 cycles each) (fold (ratio)); higher = stronger signal-on switching upon ATP binding; sequences stand for … in TCGTCGGCAGCGTCAGATGTGTATAAGAGACAGTTTTTTTTTTTTTTTTTTTTTTTTT…TC; settings: aptamer strand: ATP DNA aptamer (quencher-CACCTGGGGGAGTATTGCGGAGGAAGG + anchor), 100 nM annealed; ATP concentration: 500 uM; one replicate
Procedure, shortened: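 Five buffer/ATP imaging cycles were run on Cy3-labelled switching-strand clusters on a modified Illumina MiSeq flow-cell, with NaOH stripping and re-annealing between cycles. In each cycle, clusters annealed to 100 nM quencher-labelled ATP aptamer were imaged in selection buffer, then after 15 min with 500 uM ATP at 22 °C. Per cluster, the fluorescence ratio is summed target-cycle over summed buffer-cycle Cy3 intensity, averaged per switch-domain sequence. Only clusters within 100-1000 RFU were kept.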
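Note: ATP exposure 15 min at 22 °C before imaging.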

Sequence | switch fluorescence ratio
CCTTAAGTGC | 1.46
CCTTACCAGT | 1.1
CCTTAGTAGC | 1.14
CCTTATATGC | 1.43
CCTTCATGAA | 1.01
CCTTCCAGAG | 2.87
CCTTGAAGCC | 1.17
CCTTGAGATT | 1.01
CCTTGCACTG | 1.41
CCTTGGAACT | 1.05
CCTTGGCCAT | 1.27
CCTTGGGTG | 1.49
CCTTGGTTTC | 1.09
CCTTGTAGGA | 0.943
CCTTGTTAG | 0.997
CCTTGTTGCT | 0.951
CCTTGTTTTA | 1.01
CCTTTAACGC | 1.72
CCTTTCACGG | 1.05
CCTTTCGGCC | 1.16
CCTTTCGTCG | 1.29
CCTTTTAGGA | 1.03
CCTTTTGTTG | 0.96
CCTTTTTTGA | 0.995
CGAAACCGTA | 1.02
CGAAACTTCT | 0.998

Sequence | switch fluorescence ratio
CGAAAGAAGT | 0.996
CGAAAGAGCC | 1.01
CGAAAGGAAA | 0.992
CGAAATGCAT | 0.973
CGAACAAAGC | 1.03
CGAACCGGGC | 1.13
CGAACCTAGC | 1.21
CGAACTATAT | 1.04
CGAAGAGATG | 1.02
CGAAGCCAAG | 1.22
CGAAGCCATG | 1.35
CGAAGCGGAA | 1.8
CGAAGGCCAA | 1.12
CGAAGGTTGG | 0.981
CGAAGTAAGA | 1.38
CGAATCAAGC | 1.19
CGAATCGGGA | 1.04
CGAATGAACA | 0.984
CGAATGGCTG | 0.989
CGAATTATGT | 1.02
CGAATTTACG | 1
CGAATTTTAC | 1.03
CGAATTTTCC | 1.06
CGACAAGATT | 1.35
CGACACCGAA | 1.04
CGACAGCCAG | 1.07

Sequence | switch fluorescence ratio
CGACAGCTTT | 1.38
CGACCAATGT | 2.2
CGACCACGAT | 1.13
CGACCGTTAT | 1.23
CGACGAGGCA | 2.13
CGACGCACTT | 4.61
CGACGCCCGA | 1.95
CGACGGACCT | 1.44
CGACGGACGC | 1.45
CGACGGATCT | 1.02
CGACGGCATT | 2.59
CGACGGGACA | 1.13
CGACGGGCCC | 1.02
CGACGGGGAC | 4.35
CGACGTAACC | 2.46
CGACTAGGAT | 1.01
CGACTATTAG | 1.02
CGACTCAATG | 1.28
CGACTCGGGA | 0.95
CGACTCTTCT | 1
CGAGAATTAG | 1
CGAGACCTGC | 1.02
CGAGAGGATA | 1.03
CGAGATACCA | 1.15
CGAGATACTT | 1.2

From the supplement of paper PMC10126150
